{"source": "the BET-seq Pho4 binding data (Le et al. 2018)", "note": "Some of the results follow. Values were computed here from the reads of four pooled replicates and scatter widely."}
{"target": "T1, Pho4 (S. cerevisiae) (UniProt P07270)", "T1 sequence": "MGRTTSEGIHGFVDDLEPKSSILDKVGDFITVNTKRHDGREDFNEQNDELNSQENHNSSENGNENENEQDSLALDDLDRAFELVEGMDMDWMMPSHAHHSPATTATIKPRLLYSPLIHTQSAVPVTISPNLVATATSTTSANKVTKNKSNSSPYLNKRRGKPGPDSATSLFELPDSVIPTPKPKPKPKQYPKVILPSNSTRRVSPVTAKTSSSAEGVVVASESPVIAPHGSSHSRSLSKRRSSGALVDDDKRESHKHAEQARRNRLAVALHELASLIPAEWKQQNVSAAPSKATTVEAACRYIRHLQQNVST", "experiment": "relative binding free energy (BET-seq); higher = weaker binding", "conditions": "reference: library average", "units": {"relative binding free energy": "kcal/mol"}}
{"sequence": "TTTGACACGTGAGTAA", "relative binding free energy": 0.19}
{"sequence": "TTTTACACGTGTGCCG", "relative binding free energy": 0.12}
{"sequence": "CTGAGCACGTGGTAAG", "relative binding free energy": -0.03}
{"sequence": "ATGTACACGTGGCTGG", "relative binding free energy": -0.12}
{"sequence": "AGCGTCACGTGTTTGG", "relative binding free energy": 0.13}
{"sequence": "GTTTTCACGTGCTATG", "relative binding free energy": 0.21}
{"sequence": "TGGACCACGTGTCTGG", "relative binding free energy": 0.09}
{"sequence": "AGCGTCACGTGATAGG", "relative binding free energy": 0.2}
{"sequence": "AATTGCACGTGCATGT", "relative binding free energy": -0.1}
{"sequence": "TTGTACACGTGATGGT", "relative binding free energy": 0.26}
{"sequence": "GGGCGCACGTGCATGT", "relative binding free energy": -0.11}
{"sequence": "TGTTGCACGTGGTTCT", "relative binding free energy": -0.04}
{"sequence": "CGCGTCACGTGGGATG", "relative binding free energy": -0.18}
{"sequence": "CAGGACACGTGGTGAG", "relative binding free energy": 0.04}
{"sequence": "CTTGGCACGTGCGGGC", "relative binding free energy": -0.26}
{"sequence": "ATGTCCACGTGTTGCT", "relative binding free energy": 0.1}
{"sequence": "GTCGGCACGTGGGGCT", "relative binding free energy": -0.13}
{"sequence": "GAGGCCACGTGGGGTG", "relative binding free energy": -0.25}
{"sequence": "TGGTACACGTGTCATA", "relative binding free energy": 0.05}
{"sequence": "TGGAGCACGTGATTGG", "relative binding free energy": 0.01}
{"sequence": "TTTGACACGTGACTAG", "relative binding free energy": 0.21}
{"sequence": "GTCGTCACGTGTAGTT", "relative binding free energy": 0.16}
{"sequence": "GTACGCACGTGAGCGG", "relative binding free energy": 0.19}
{"sequence": "TTTGACACGTGGGAAC", "relative binding free energy": 0.04}
{"sequence": "TTTGCCACGTGTCGTT", "relative binding free energy": -0.04}
{"sequence": "TTAGCCACGTGGATGT", "relative binding free energy": -0.1}
{"sequence": "GGCAACACGTGATTGT", "relative binding free energy": 0.27}
{"sequence": "TACCTCACGTGGTGGT", "relative binding free energy": 0.24}
{"sequence": "TAGCTCACGTGTGGGG", "relative binding free energy": 0.31}
{"sequence": "GCTAACACGTGGTTTG", "relative binding free energy": -0.01}
{"sequence": "TTGCGCACGTGAGGTC", "relative binding free energy": 0.21}
{"sequence": "ATTTTCACGTGCGGTC", "relative binding free energy": 0.37}
{"sequence": "GGGCTCACGTGTTCGG", "relative binding free energy": 0.24}
{"sequence": "TGTAGCACGTGCTTTT", "relative binding free energy": -0.15}
{"sequence": "AGGGACACGTGTGGGC", "relative binding free energy": 0.13}
{"sequence": "CTTGTCACGTGTGCAG", "relative binding free energy": 0.15}
{"sequence": "GATCGCACGTGGCGTG", "relative binding free energy": -0.05}
{"sequence": "GGGGACACGTGGTATT", "relative binding free energy": 0.05}
{"sequence": "TATTCCACGTGGATTG", "relative binding free energy": 0.06}
{"sequence": "TTAGGCACGTGGCAGA", "relative binding free energy": -0.19}
{"sequence": "GTGCTCACGTGCTTGT", "relative binding free energy": 0.27}
{"sequence": "GTTCGCACGTGTATGG", "relative binding free energy": 0}
{"sequence": "TTGGACACGTGTTAAT", "relative binding free energy": 0.1}
{"sequence": "ATTGCCACGTGGTTGG", "relative binding free energy": -0.23}
{"sequence": "TGGTACACGTGAGGGA", "relative binding free energy": 0.27}
{"sequence": "AGTCGCACGTGCAGGG", "relative binding free energy": -0.11}
{"sequence": "CTGGTCACGTGGGATG", "relative binding free energy": 0.02}
{"sequence": "GGTTGCACGTGAGGTG", "relative binding free energy": 0.26}
{"sequence": "GTGGTCACGTGTGTTT", "relative binding free energy": 0.29}
{"sequence": "GTCGGCACGTGAGTTA", "relative binding free energy": 0.1}
{"sequence": "TGAAACACGTGAATGT", "relative binding free energy": 0.38}
{"sequence": "AGACGCACGTGTCGGG", "relative binding free energy": -0.06}
{"sequence": "TGAATCACGTGTTTGT", "relative binding free energy": 0.03}
{"sequence": "TATTGCACGTGTTGGA", "relative binding free energy": -0.02}
{"sequence": "CGAAGCACGTGGGTTT", "relative binding free energy": -0.16}
{"sequence": "GTGGTCACGTGATTTG", "relative binding free energy": 0.21}
{"sequence": "TACTGCACGTGAGGGT", "relative binding free energy": 0.12}
{"sequence": "TTGGTCACGTGAAGGT", "relative binding free energy": 0.31}
{"sequence": "AGGGGCACGTGAGTAA", "relative binding free energy": -0.01}
{"sequence": "TGGAACACGTGTATGT", "relative binding free energy": 0.09}
{"sequence": "GGTAGCACGTGGAGTA", "relative binding free energy": 0.06}
{"sequence": "AAGAGCACGTGGTCTG", "relative binding free energy": -0.2}
{"sequence": "TGGGGCACGTGCTTAT", "relative binding free energy": -0.14}
{"sequence": "GATGTCACGTGAGGGA", "relative binding free energy": 0.26}
{"sequence": "TCGGTCACGTGTTGTT", "relative binding free energy": 0.18}
{"sequence": "TTCGGCACGTGAGTTA", "relative binding free energy": 0.1}
{"sequence": "GAAGGCACGTGTGACG", "relative binding free energy": 0.05}
{"sequence": "GCGTTCACGTGAATGG", "relative binding free energy": 0.28}
{"sequence": "ATCATCACGTGGGGTG", "relative binding free energy": -0.06}
{"sequence": "CCGTTCACGTGGTGTT", "relative binding free energy": 0.24}
{"sequence": "TTAGACACGTGTTGTA", "relative binding free energy": 0.01}
{"sequence": "AGAAACACGTGGTTAG", "relative binding free energy": 0.04}
{"sequence": "TACGGCACGTGGGGAG", "relative binding free energy": -0.31}
{"sequence": "TTTGTCACGTGGGGCC", "relative binding free energy": 0.05}
{"sequence": "AAGGGCACGTGTAGAG", "relative binding free energy": -0.11}
{"sequence": "TGTCGCACGTGAAAGT", "relative binding free energy": 0.24}
{"sequence": "GTAGGCACGTGGCGTG", "relative binding free energy": -0.11}
{"sequence": "TTTTACACGTGGTGTA", "relative binding free energy": 0.03}
{"sequence": "TGTTTCACGTGATGTT", "relative binding free energy": 0.4}
{"sequence": "CTGTTCACGTGGGAAT", "relative binding free energy": 0.31}
{"sequence": "TATGTCACGTGTAGCG", "relative binding free energy": 0.05}
{"sequence": "GGTAGCACGTGGTTGG", "relative binding free energy": 0.03}
{"sequence": "GTACGCACGTGGAGGT", "relative binding free energy": -0.19}
{"sequence": "TAGAGCACGTGGGTAC", "relative binding free energy": -0.25}
{"sequence": "GTTGTCACGTGTCGGT", "relative binding free energy": 0.14}
{"sequence": "GGTTTCACGTGGGGCC", "relative binding free energy": 0.29}
{"sequence": "GTCTACACGTGTGGAT", "relative binding free energy": 0.24}
{"sequence": "TATTTCACGTGCTTAA", "relative binding free energy": 0.19}
{"sequence": "AAGGTCACGTGGATTA", "relative binding free energy": 0.2}
{"sequence": "GGGCGCACGTGAGTGA", "relative binding free energy": 0.16}
{"sequence": "ATCATCACGTGTTGAG", "relative binding free energy": 0.22}
{"sequence": "GTTCACACGTGGTGTG", "relative binding free energy": -0.04}
{"sequence": "AAAATCACGTGGGCTG", "relative binding free energy": 0.15}
{"sequence": "TCAGTCACGTGGGATG", "relative binding free energy": 0.12}
{"sequence": "TAATGCACGTGGAGGG", "relative binding free energy": -0.1}
{"sequence": "ATAAGCACGTGTATTG", "relative binding free energy": -0.03}
{"sequence": "TTCTGCACGTGTTGGG", "relative binding free energy": -0.06}
{"sequence": "GAGGTCACGTGATTGG", "relative binding free energy": 0.39}
{"sequence": "TCTGTCACGTGGTACG", "relative binding free energy": 0.09}
{"sequence": "TGCAGCACGTGTTTGC", "relative binding free energy": 0.01}
{"sequence": "GTTGACACGTGTTTTC", "relative binding free energy": 0.04}
{"sequence": "CACGTCACGTGGTGAG", "relative binding free energy": 0.15}
{"sequence": "ACGATCACGTGTGTGT", "relative binding free energy": 0.08}
{"sequence": "CGTTGCACGTGTGAGT", "relative binding free energy": -0.09}
{"sequence": "CGTATCACGTGATTGT", "relative binding free energy": 0.23}
{"sequence": "ATAGCCACGTGGTGAG", "relative binding free energy": -0.14}
{"sequence": "ATGTACACGTGCTGTG", "relative binding free energy": 0.03}
{"sequence": "AGTTGCACGTGAGTAG", "relative binding free energy": 0.2}
{"sequence": "TTGGACACGTGTTTCA", "relative binding free energy": 0.04}
{"sequence": "ATAGCCACGTGGATGT", "relative binding free energy": -0.12}
{"sequence": "GTCAGCACGTGAGGTC", "relative binding free energy": 0.37}
{"sequence": "AGGGTCACGTGAAAGG", "relative binding free energy": 0.38}
{"sequence": "TGGTCCACGTGGGCGA", "relative binding free energy": -0.12}
{"sequence": "GGATGCACGTGAGTTA", "relative binding free energy": 0.36}
{"sequence": "AGATACACGTGGTGTG", "relative binding free energy": -0.12}
